# In the supplement of paper PMC9135407:
# Values joined by “and” are separate entries in the source; they are usually repeats but may differ in a detail not shown here. Equal values may be shown once. Where a name gives a salt, the structure may show the parent alone. The campaign covered roughly 5,800 compounds. About 620 (11%) showed activity.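 The calls were made as follows: active = score above a cut-off or among the top three wells of a plate; in these data no inactive exceeds 0.85.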 The list shows a part of the results, in another mix than the full data.
# System: primary human hepatic stellate cells (donor 1)
# Test: scaled lipid accumulation score (0 = DMSO-like, 1 = nortriptyline-like); higher = stronger HSC inactivation (lipid re-accumulation), active = hit call of the paper
# Settings: 48 h
# [1] = library stock concentration: 3.33 mM
# [2] = library stock concentration: 10 mM
# [3] = library stock concentration: 2.9 mM
# [4] = library stock concentration: 80 uM
# [5] = library stock concentration: 400 uM
# [6] = library stock concentration: 2 mM
# [7] = library stock concentration: 1 mM
structure (smiles),measurement,setting,value
CCCCCCCCCCCCCCCC(=O)O[C@@H]1[C@@H](O)[C@@H](O)[C@@H]([C@H](NC(=O)[C@@H]2C[C@@H](CCC)CN2C)[C@H](C)Cl)O[C@@H]1SC [Clindamycin palmitate HCl],scaled lipid accumulation score,[1],inactive: ≤ 0
same,scaled lipid accumulation score,[2],inactive: ≤ 0
CCCCCCCCCCCCCCCC(=O)O[C@@H]1[C@@H](O)[C@@H](O)[C@@H]([C@H](NC(=O)[C@@H]2C[C@@H](CCC)CN2C)[C@H](C)Cl)O[C@@H]1SC [Clindamycin palmitate],scaled lipid accumulation score,library stock concentration: 4.7 mM,inactive: ≤ -0.002
CCCCCCCCCCCCCCCC(=O)O[C@@H]1[C@@H](O)[C@@H](O)[C@@H]([C@H](NC(=O)[C@@H]2C[C@@H](CCC)CN2C)[C@H](C)Cl)O[C@@H]1SC [Clindamycin palmitate hydrochloride],scaled lipid accumulation score,[3],inactive: ≤ 0
COc1cc(/C=C(\C#N)C(N)=O)cc(CSc2nc3ccccc3s2)c1O,scaled lipid accumulation score,[2],inactive: ≤ 0
CCOCC(O)COc1ccc(NC(=O)CC[S+](C)C)cc1 (stereo not given) [Suplatast tosylate],scaled lipid accumulation score,[2],inactive: ≤ -0.001
CCOCC(O)COc1ccc(NC(=O)CC[S+](C)C)cc1 (stereo not given) [Suplatast Tosylate],scaled lipid accumulation score,[1],inactive: ≤ 0
same,scaled lipid accumulation score,[2],inactive: ≤ 0
CN1CCN(CCOc2cc(OC3CCOCC3)c3c(Nc4c(Cl)ccc5c4OCO5)ncnc3c2)CC1 [Saracatinib (AZD0530)],scaled lipid accumulation score,[1],inactive: 0.783
same,scaled lipid accumulation score,[2],inactive: 0.661
CN1CCN(CCOc2cc(OC3CCOCC3)c3c(Nc4c(Cl)ccc5c4OCO5)ncnc3c2)CC1,scaled lipid accumulation score,[4],inactive: 0.151
same,scaled lipid accumulation score,[5],inactive: 0.172
same,scaled lipid accumulation score,[6],inactive: 0.419
same,scaled lipid accumulation score,[2],inactive: 0.706
O=C(NCC(O)CO)c1c(I)c(C(=O)NCC(O)CO)c(I)c(N(CCO)C(=O)CO)c1I (stereo not given) [Ioversol],scaled lipid accumulation score,,inactive: ≤ 0
CO/N=C(\C(=O)N[C@@H]1C(=O)N2C(C(=O)O)=C(COC(N)=O)CS[C@H]12)c1ccco1 [Cefuroxime sodium salt],scaled lipid accumulation score,,inactive: ≤ 0
CO/N=C(\C(=O)N[C@@H]1C(=O)N2C(C(=O)O)=C(COC(N)=O)CS[C@H]12)c1ccco1 [Cefuroxime sodium],scaled lipid accumulation score,library stock concentration: 4.5 mM,inactive: ≤ 0
same,scaled lipid accumulation score,[2],inactive: ≤ 0
CO/N=C(\C(=O)N[C@@H]1C(=O)N2C(C(=O)O)=C(COC(N)=O)CS[C@H]12)c1ccco1 [Cefuroxime],scaled lipid accumulation score,[2],inactive: ≤ 0
C[C@@H](N)c1ccc(C(=O)Nc2ccnc3[nH]ccc23)cc1,scaled lipid accumulation score,[4],inactive: ≤ -0.009
same,scaled lipid accumulation score,[5],inactive: ≤ -0.009
same,scaled lipid accumulation score,[6],inactive: 0.069
Nc1ccc(S(=O)(=O)Nc2ccnn2-c2ccccc2)cc1 [Sulfaphenazole],scaled lipid accumulation score,,inactive: 0.045
same,scaled lipid accumulation score,[2],inactive: ≤ 0
FC(F)(Cl)C(F)(F)Cl,scaled lipid accumulation score,[2],inactive: ≤ 0
C=CC(=O)Nc1ccc2ncnc(Nc3cccc(Br)c3)c2c1,scaled lipid accumulation score,[1],inactive: 0.014
same,scaled lipid accumulation score,[2],inactive: 0.802
CCC(=O)c1c(O)cc(O)cc1O [Flopropione],scaled lipid accumulation score,[1],inactive: ≤ 0
same,scaled lipid accumulation score,[2],inactive: ≤ -0.001 and inactive: ≤ 0
COc1ccc(C2CC(c3c(O)cc(C)oc3=O)=NCCS2)c(OC)c1 (stereo not given),scaled lipid accumulation score,[2],inactive: 0.164
CC1Cc2ccccc2N1NC(=O)c1ccc(Cl)c(S(N)(=O)=O)c1 (stereo not given) [Indapamide],scaled lipid accumulation score,,inactive: ≤ 0
same,scaled lipid accumulation score,[1],inactive: ≤ 0
same,scaled lipid accumulation score,[2],inactive: 0.054 and inactive: ≤ 0
CC1Cc2ccccc2N1NC(=O)c1ccc(Cl)c(S(N)(=O)=O)c1 (stereo not given),scaled lipid accumulation score,[2],inactive: ≤ 0
CCCS(=O)(=O)Nc1ccc(F)c(C(=O)c2c[nH]c3ncc(Cl)cc23)c1F,scaled lipid accumulation score,[2],active: 1.16
Nc1nc2[nH]c(=O)cnc2c(=O)[nH]1 [Isoxanthopterin],scaled lipid accumulation score,[2],inactive: ≤ -0.055
C[C@H]1O[C@@H](O[C@H]2[C@@H](O)C[C@H](O[C@H]3[C@@H](O)C[C@H](O[C@H]4CC[C@]5(C)C6C[C@@H](O)[C@]7(C)[C@@H](C8=CC(=O)OC8)CC[C@]7(O)C6CC[C@@H]5C4)O[C@@H]3C)O[C@@H]2C)C[C@H](O)[C@@H]1O (stereo not given in full) [Digoxin],scaled lipid accumulation score,library stock concentration: 2.6 mM,active: 0.937
CC(C)(C)[C@]1(O)CCN2C[C@H]3c4ccccc4CCc4cccc(c43)[C@@H]2C1,scaled lipid accumulation score,[2],inactive: 0.691
CC(C)(C)[C@]1(O)CCN2C[C@H]3c4ccccc4CCc4cccc(c43)[C@@H]2C1 [(+)-Butaclamol hydrochloride],scaled lipid accumulation score,[2],inactive: 0.672
"N[C@H](C(=O)O)c1cc(O)cc(O)c1 [(S)-3,5-Dihydroxyphenylglycine]",scaled lipid accumulation score,[2],inactive: ≤ -0.07
N[C@H](C(=O)O)c1cc(O)cc(O)c1,scaled lipid accumulation score,[2],inactive: ≤ 0
c1ccc(C(NCc2cccnc2)(c2ccccc2)c2ccccc2)cc1,scaled lipid accumulation score,[2],inactive: ≤ -0.07 and inactive: ≤ -0.001
CC(=O)OC1CC2CCC1(C)C2(C)C (stereo not given),scaled lipid accumulation score,[2],inactive: ≤ 0
O=S(=O)(NCCNC/C=C/c1ccc(Br)cc1)c1cccc2cnccc12,scaled lipid accumulation score,[2],active: 0.989
Cc1cccc(C#Cc2ccccc2)n1 [6-Methyl-2-(phenylethynyl)pyridine hydrochloride],scaled lipid accumulation score,[2],inactive: ≤ -0.034
Cc1cccc(C#Cc2ccccc2)n1,scaled lipid accumulation score,[1],inactive: ≤ 0
same,scaled lipid accumulation score,[2],inactive: 0.052
Cc1cccc(C#Cc2ccccc2)n1 [MPEP hydrochloride],scaled lipid accumulation score,[2],inactive: 0.053
CN(C1CCc2c(c3ccccc3n2CC(=O)O)C1)S(=O)(=O)c1ccc(F)cc1 (stereo not given),scaled lipid accumulation score,[7],inactive: 0.083
C=C[C@@]1(C)C[C@@H](OC(=O)CS[C@@H]2C[C@H]3CC[C@@H](C2)N3C)[C@@]2(C)[C@@H]3C(=O)CC[C@@]3(CC[C@@H]2C)[C@@H](C)[C@@H]1O [Retapamulin],scaled lipid accumulation score,[2],active: 0.947
C[C@H](O)C(=O)Nc1c(I)c(C(=O)NC(CO)CO)c(I)c(C(=O)NC(CO)CO)c1I [Iopamidol],scaled lipid accumulation score,,inactive: ≤ 0
COC(=O)C1=C(C)NC(C)=C(C(=O)OCCSc2ccccc2)C1C (stereo not given),scaled lipid accumulation score,[2],inactive: 0.111
same,scaled lipid accumulation score,library stock concentration: 13.8 mM,inactive: 0.203
CCCCC/C=C\C\C=C/C=C/C=C/[C@@H](SC[C@H](N)C(=O)O)[C@@H](O)CCCC(=O)O [Leukotriene E4],scaled lipid accumulation score,library stock concentration: 100 uM,inactive: 0.015
O=c1cc[nH]c(=S)[nH]1 [2-Thiouracil],scaled lipid accumulation score,[1],inactive: 0.006
same,scaled lipid accumulation score,[2],inactive: ≤ 0
O=c1cc[nH]c(=S)[nH]1 [2-thiouracil],scaled lipid accumulation score,[2],inactive: ≤ -0.027
CC(C)CC(=O)N[C@H](C(=O)N[C@H](C(=O)N[C@@H](CC(C)C)[C@@H](O)CC(=O)N[C@@H](C)C(=O)N[C@@H](CC(C)C)[C@@H](O)CC(=O)O)C(C)C)C(C)C [Pepstatin A],scaled lipid accumulation score,,inactive: 0.033
CC(C)CC(=O)N[C@H](C(=O)N[C@H](C(=O)N[C@@H](CC(C)C)[C@@H](O)CC(=O)N[C@@H](C)C(=O)N[C@@H](CC(C)C)[C@@H](O)CC(=O)O)C(C)C)C(C)C [Pepstatin a],scaled lipid accumulation score,[3],inactive: 0.001
CC(C)CC(=O)N[C@H](C(=O)N[C@H](C(=O)N[C@@H](CC(C)C)[C@@H](O)CC(=O)N[C@@H](C)C(=O)N[C@@H](CC(C)C)[C@@H](O)CC(=O)O)C(C)C)C(C)C [Pepstatin],scaled lipid accumulation score,library stock concentration: 7.3 mM,inactive: 0.005
CC(C)(C)c1ccc(-c2nc3ccccc3[nH]2)cc1,scaled lipid accumulation score,[1],inactive: ≤ -0.009
same,scaled lipid accumulation score,[2],inactive: ≤ 0
O=C(/C=C/c1ccc(CN(CCO)CCc2c[nH]c3ccccc23)cc1)NO [LAQ824 (Dacinostat)],scaled lipid accumulation score,[1],inactive: 0.742
same,scaled lipid accumulation score,[2],inactive: 0.578
Cc1nc(N)ncc1-c1nc(N2CCOCC2)c2sc(C(C)(C)O)cc2n1,scaled lipid accumulation score,[5],inactive: 0.092
same,scaled lipid accumulation score,[6],inactive: ≤ -0.005
same,scaled lipid accumulation score,[2],inactive: ≤ -0.005
Cc1nc(-c2cn3c(n2)-c2ccc(-c4cnn(C(C)(C)C(N)=O)c4)cc2OCC3)n(C(C)C)n1 [Taselisib],scaled lipid accumulation score,[4],inactive: ≤ -0.001
same,scaled lipid accumulation score,[5],inactive: ≤ -0.001
same,scaled lipid accumulation score,[6],inactive: 0.003
same,scaled lipid accumulation score,[2],inactive: ≤ -0.001
CCCCC[C@H](O)/C=C/[C@H]1CC[C@H](O)[C@@H]1C/C=C\CCCC(=O)O [11-deoxy Prostaglandin F2.alpha.],scaled lipid accumulation score,[7],inactive: ≤ 0
Nc1nc(NCCc2ccc(O)cc2)nc2nc(-c3ccco3)nn12,scaled lipid accumulation score,[2],inactive: ≤ -0.006
C=CCN1CCc2c(cc(O)c(O)c2Br)[C@@H](c2ccccc2)C1 [R(+)-6-Bromo-APB hydrobromide],scaled lipid accumulation score,[2],inactive: 0.262
C[C@@H]1C[C@H]2[C@@H]3C[C@H](F)C4=CC(=O)C(Cl)=C[C@]4(C)[C@@]3(F)[C@@H](O)C[C@]2(C)[C@@]1(O)C(=O)CO,scaled lipid accumulation score,[2],inactive: ≤ 0
"CCCC/C=C/C=C/C=C\CCCCCCCC(=O)O [9(Z),11(E),13(E)-Octadecatrienoic Acid]",scaled lipid accumulation score,[7],inactive: ≤ 0
CCCCCCCCCCCCCCCC(=O)OC[C@@H](O)COP(=O)(O)O [1-Palmitoyl Lysophosphatidic Acid (sodium salt)],scaled lipid accumulation score,[7],inactive: 0.001
CCn1ccnc1CC1COc2ccccc2O1 (stereo not given) [Imiloxan hydrochloride],scaled lipid accumulation score,[2],inactive: 0.162 and inactive: ≤ 0
COc1ccc(S(=O)(=O)N(C(C)=O)c2ccccc2/C=C/c2cc[n+]([O-])cc2)cc1,scaled lipid accumulation score,[4],inactive: ≤ -0.016
same,scaled lipid accumulation score,[5],inactive: ≤ -0.016
same,scaled lipid accumulation score,[6],inactive: ≤ -0.016
same,scaled lipid accumulation score,[1],inactive: ≤ 0
same,scaled lipid accumulation score,[2],inactive: ≤ 0 and inactive: 0.15
Cc1c(F)cc(C(=O)NC2CC2)cc1-c1ccc(C(=O)NCC(C)(C)C)cn1 [Losmapimod],scaled lipid accumulation score,[4],inactive: ≤ 0
same,scaled lipid accumulation score,[5],inactive: 0.016
same,scaled lipid accumulation score,[6],inactive: ≤ 0
same,scaled lipid accumulation score,[2],inactive: ≤ 0
Cc1c(F)cc(C(=O)NC2CC2)cc1-c1ccc(C(=O)NCC(C)(C)C)cn1,scaled lipid accumulation score,[1],inactive: ≤ -0.009
same,scaled lipid accumulation score,[2],inactive: 0.107
C[C@H](C(=O)O)c1ccc(-c2ccccc2)c(F)c1 [(S)-Flurbiprofen],scaled lipid accumulation score,[7],inactive: 0.003
